According to patent publication US20240209078A1 (Amgen, published 2024):

Columns and labels:
Assay in all cases: cell-based or functional assay
human MSLN = human MSLN (human, UniProt Q13421 37-598)
human CDH3 = human CDH3 (human, UniProt P22223 108-829)
human CD3ε chain = human CD3ε chain (human, UniProt P07766)
CD3ε chain = CD3ε chain (human, UniProt P07766 23-126, limits assumed)
CD3ε chain, sequence (P07766 23-126 limits assumed): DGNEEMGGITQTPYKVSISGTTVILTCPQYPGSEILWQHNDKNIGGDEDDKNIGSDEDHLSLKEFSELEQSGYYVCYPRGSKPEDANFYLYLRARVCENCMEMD

human CD3ε chain, sequence (P07766 23-207 limits assumed): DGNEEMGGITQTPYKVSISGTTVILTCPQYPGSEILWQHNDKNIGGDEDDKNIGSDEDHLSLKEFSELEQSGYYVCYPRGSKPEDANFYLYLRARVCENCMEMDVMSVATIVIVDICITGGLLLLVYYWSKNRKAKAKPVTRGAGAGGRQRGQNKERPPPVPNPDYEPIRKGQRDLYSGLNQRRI

fold selectivity gap, GSU KO CDH3 against GSU wt (human MSLN) [fold] | fold selectivity gap, GSU KO MSLN against GSU wt (human CDH3) [fold] | Activity reduction of single CD3 binding domain in molecule (I2L) compared to high affinity binding domain I2C (human CD3ε chain) [fold] | Activity reduction of single CD3 binding domain in molecule compared to high affinity binding domain I2C with KD 1.2E-08M (CD3ε chain) [fold] | Activity reduction of single CD3 binding domain in molecule (I2M2) compared to high affinity binding domain I2C (human CD3ε chain) [fold] | Binder | EC50 GSU KO CDH3 (cytotoxicity; cells CDH3-, MSLN+) (human MSLN) [pM] | EC50 GSU wt (cytotoxicity; cells CDH3+, MSLN+) (human MSLN) [pM] | EC50 GSU KO MSLN (cytotoxicity; cells CDH3+, MSLN-) (human CDH3) [pM] | EC50 GSU wt (cytotoxicity; cells CDH3+, MSLN+) (human CDH3) [pM]
30 | 108 | ~98 | – | – | MS 15-B12 CC × I2L × scFc × CH3 15-E11 CC × I2L (bispecific antibody) QVQLQESGPGLVKPSETLSLTCTVSGGSISSSSYFWGWIRQPPGKCLEWIGNIYYSGSSNYNPSLKSRVTISVDTSKNQFSLKLSSVTAADTAVYYCARLPRGDRDAFDIWGQGTMVTVSSGGGGSGGGGSGGGGSDIVMTQSPSSLSASVGDRVTITCRASQGISNYLAWYQQKPGKVPKLLIYAASTLQSGVPSRFSGSGSGTDFTLTISSLQPEDFATYYCQQSYSTPFTFGCGTKVEIKSGGGGSEVQLVESGGGLVQPGGSLKLSCAASGFTFNKYAMNWVRQAPGKGMEWVARIRSKYNNYATYYADAVKDRFTISRDDSKNTLYLQMNNLKTEDTAVYYCVRAGNFGSSYISYFAYWGQGTLVTVSSGGGGSGGGGSGGGGSQTVVTQEPSLTVSPGGTVTITCGSSTGAVTSGNYPNWIQKKPGQAPRGLIGGTKFLAPGTPARFSGSLEGGKAALTLSGVQPEDEAEYYCVLYYSNRWVFGSGTKLTVLGGGGSGGGGSGGGGS[sequence of human IgG1 Fc with R292C N297G V302C (EU numbers) omitted]GGGGSGGGGSGGGGSGGGGSGGGGSGGGGS[sequence of human IgG1 Fc with R292C N297G V302C (EU numbers) omitted]GGGGSGGGGSGGGGSQVQLVQSGAEVKKPGASVKVSCKASGYTFTNYWMNWVRQAPGQCLEWMGNIAYGVKGTNYNQKFQGRVTMTVDTSSSTAYMELSRLRSDDTAVYYCATRYFYVMDYWGQGTLVTVSSGGGGSGGGGSGGGGSDIQMTQSPSSLSASVGDRVTITCRASQDISNYLNWYQQKPGKVPKLLIYYTSRLHSGVPSRFSGSGSGTDFTLTISSLQPEDVATYYCVQYAQFPLTFGCGTKVEIKSGGGGSEVQLVESGGGLVQPGGSLKLSCAASGFTFNKYAMNWVRQAPGKGMEWVARIRSKYNNYATYYADAVKDRFTISRDDSKNTLYLQMNNLKTEDTAVYYCVRAGNFGSSYISYFAYWGQGTLVTVSSGGGGSGGGGSGGGGSQTVVTQEPSLTVSPGGTVTITCGSSTGAVTSGNYPNWIQKKPGQAPRGLIGGTKFLAPGTPARFSGSLEGGKAALTLSGVQPEDEAEYYCVLYYSNRWVFGSGTKLTVL | 19.6 | 0.66 | 71.2 | 0.66
18 | 16 | – | – | ~32 | MS 15-B12 CC × I2M2 × scFc × CH3 15-E11 CC × I2M2 (bispecific antibody) QVQLQESGPGLVKPSETLSLTCTVSGGSISSSSYFWGWIRQPPGKCLEWIGNIYYSGSSNYNPSLKSRVTISVDTSKNQFSLKLSSVTAADTAVYYCARLPRGDRDAFDIWGQGTMVTVSSGGGGSGGGGSGGGGSDIVMTQSPSSLSASVGDRVTITCRASQGISNYLAWYQQKPGKVPKLLIYAASTLQSGVPSRFSGSGSGTDFTLTISSLQPEDFATYYCQQSYSTPFTFGCGTKVEIKSGGGGSEVQLVESGGGLVQPGGSLKLSCAASGFTFNKYAINWVREAPGKGLEWVARIRSKYNNYATYYADAVKDRFTISRDDSKNTAYLQMNNLKTEDTAVYYCVRNANFGTSYISYFAYWGQGTLVTVSSGGGGSGGGGSGGGG[sequence of about 120 residues omitted]GGGSGGGGSGGGGS[sequence of human IgG1 Fc with R292C N297G V302C (EU numbers) omitted]GGGGSGGGGSGGGGSGGGGSGGGGSGGGGS[sequence of human IgG1 Fc with R292C N297G V302C (EU numbers) omitted]GGGGSGGGGSGGGGSQVQLVQSGAEVKKPGASVKVSCKASGYTFTNYWMNWVRQAPGQCLEWMGNIAYGVKGTNYNQKFQGRVTMTVDTSSSTAYMELSRLRSDDTAVYYCATRYFYVMDYWGQGTLVTVSSGGGGSGGGGSGGGGSDIQMTQSPSSLSASVGDRVTITCRASQDISNYLNWYQQKPGKVPKLLIYYTSRLHSGVPSRFSGSGSGTDFTLTISSLQPEDVATYYCVQYAQFPLTFGCGTKVEIKSGGGGSEVQLVESGGGLVQPGGSLKLSCAASGFTFNKYAINWVREAPGKGLEWVARIRSKYNNYATYYADAVKDRFTISRDDSKNTAYLQMNNLKTEDTAVYYCVRNANFGTSYISYFAYWGQGTLVTVSSGGGGSGGGGSGGGG[sequence of about 120 residues omitted] | 2 | 0.11 | 1.7 | 0.11

Further lines, the binder ahead of its results:

Binder | fold selectivity gap, GSU KO CDH3 against GSU wt (human MSLN) [fold] | fold selectivity gap, GSU KO MSLN against GSU wt (human CDH3) [fold] | Activity reduction of single CD3 binding domain in molecule (I2L) compared to high affinity binding domain I2C (human CD3ε chain) [fold] | Activity reduction of single CD3 binding domain in molecule compared to high affinity binding domain I2C with KD 1.2E-08M (CD3ε chain) [fold] | Activity reduction of single CD3 binding domain in molecule (I2M2) compared to high affinity binding domain I2C (human CD3ε chain) [fold] | EC50 GSU KO CDH3 (cytotoxicity; cells CDH3-, MSLN+) (human MSLN) [pM] | EC50 GSU wt (cytotoxicity; cells CDH3+, MSLN+) (human MSLN) [pM] | EC50 GSU KO MSLN (cytotoxicity; cells CDH3+, MSLN-) (human CDH3) [pM] | EC50 GSU wt (cytotoxicity; cells CDH3+, MSLN+) (human CDH3) [pM]
CL1 9-G4 CC × 5B1.05 × scFc × FL 4-E9 CC × 5B1.05 (bispecific antibody) QVQLVQSGAEVKKPGASVKVSCKASGYTFTDYYMHWVRQAPGQCLEWMGWINPNSGGPNYAQKFQGRVTMTRDTSISTAHMELSRLRSDDTAVYYCAREKHAVAGIGFDYWGQGTLVTVSSGGGGSGGGGSGGGGSDIQMTQSPSSVSASVGDRVTITCQASQDISNYLNWYQQKPGKAPKLLIYAASSLESGVPSRFSGSGSGTDFTLTISSLQPEDFATYYCQQANSFPLTFGCGTKVDIKSGGGGSEVQLVESGGGLVQPGGSLKLSCAASGFTFSKYAMNWVRQAPGKGMEWVARIRSKYNNYATYYAEAVKGRFTISRDDSKNTVYLQMNNLKTEDTAVYYCVRAGNFGSSYISYWAYWGQGTLVTVSSGGGGSGGGGSGGGG[sequence of about 120 residues omitted]GGGSGGGGSGGGGS[sequence of human IgG1 Fc with R292C N297G V302C (EU numbers) omitted]GGGGSGGGGSGGGGSGGGGSGGGGSGGGGS[sequence of human IgG1 Fc with R292C N297G V302C (EU numbers) omitted]GGGGSGGGGSGGGGSQVTLKESGPTLVKPTETLTLTCTVSGFSFRNARMGVSWIRQPPGKCLEWLAHIFSNDEKSYSTSLKSRLTISKDTSKSQVVLTMTNMDPVDTATYFCARVPEYSSGWYRFDYWGQGTLVTVSSGGGGSGGGGSGGGGSDIQMTQSPSSLSASVGDRVTISCRASQSIRSYLNWYQQKPGKAPKLLIYATSSLQGGVPSRFSGSGSGTDFTLTISSLQPEDFATYYCQQSYSTPFTFGCGTKVEIKSGGGGSEVQLVESGGGLVQPGGSLKLSCAASGFTFSKYAMNWVRQAPGKGMEWVARIRSKYNNYATYYAEAVKGRFTISRDDSKNTVYLQMNNLKTEDTAVYYCVRAGNFGSSYISYWAYWGQGTLVTVSSGGGGSGGGGSGGGG[sequence of about 120 residues omitted] | – | – | – | ~145 | – | – | – | – | –
CL1 9-G4 CC × 5B1.09 × scFc × FL 4-E9 CC × 5B1.09 (bispecific antibody) QVQLVQSGAEVKKPGASVKVSCKASGYTFTDYYMHWVRQAPGQCLEWMGWINPNSGGPNYAQKFQGRVTMTRDTSISTAHMELSRLRSDDTAVYYCAREKHAVAGIGFDYWGQGTLVTVSSGGGGSGGGGSGGGGSDIQMTQSPSSVSASVGDRVTITCQASQDISNYLNWYQQKPGKAPKLLIYAASSLESGVPSRFSGSGSGTDFTLTISSLQPEDFATYYCQQANSFPLTFGCGTKVDIKSGGGGSEVQLVESGGGLVQPGGSLKLSCAASGFTFSKYAMNWVRQAPGKGMEWVARIRSKYNNYATYYADAVKGRFTISRDDSKNTVYLQMNNLKTEDTAVYYCVRAGNFGKSYISYFAYWGQGTLVTVSSGGGGSGGGGSGGGGSQTVVTQEPSLTVSPGGTVTLTCGSSTGAVTSGNYPNWVQKKPGQAPRGLIGGTKFLAPGTPARFSGSLSGGKAALTLSGVQPEDEAEYYCVLYYSNRWVFGGGTKLTVLGGGGSGGGGSGGGGS[sequence of human IgG1 Fc with R292C N297G V302C (EU numbers) omitted]GGGGSGGGGSGGGGSGGGGSGGGGSGGGGS[sequence of human IgG1 Fc with R292C N297G V302C (EU numbers) omitted]GGGGSGGGGSGGGGSQVTLKESGPTLVKPTETLTLTCTVSGFSFRNARMGVSWIRQPPGKCLEWLAHIFSNDEKSYSTSLKSRLTISKDTSKSQVVLTMTNMDPVDTATYFCARVPEYSSGWYRFDYWGQGTLVTVSSGGGGSGGGGSGGGGSDIQMTQSPSSLSASVGDRVTISCRASQSIRSYLNWYQQKPGKAPKLLIYATSSLQGGVPSRFSGSGSGTDFTLTISSLQPEDFATYYCQQSYSTPFTFGCGTKVEIKSGGGGSEVQLVESGGGLVQPGGSLKLSCAASGFTFSKYAMNWVRQAPGKGMEWVARIRSKYNNYATYYADAVKGRFTISRDDSKNTVYLQMNNLKTEDTAVYYCVRAGNFGKSYISYFAYWGQGTLVTVSSGGGGSGGGGSGGGGSQTVVTQEPSLTVSPGGTVTLTCGSSTGAVTSGNYPNWVQKKPGQAPRGLIGGTKFLAPGTPARFSGSLSGGKAALTLSGVQPEDEAEYYCVLYYSNRWVFGGGTKLTVL | – | – | – | ~92 | – | – | – | – | –
